From PubChem BioAssay (NCI)
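1) Cells in 96-well plates. 2) Compound, 48 h, 5 concentrations. 3) Linear interpolation between surrounding doses. 4) Unreached endpoint = highest concentration. GI50: concentration for 50% inhibition of growth.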 For part of its entries the source gives two or more results. The list is limited to them. An entry can have further records. For part of these data: The tests behind the records often covered other concentration ranges, which the source does not state; a value can be the end of its range. For part of these data: Results that share an entry are repeats across runs, samples, wells, individuals or studies. Brackets tell where a record comes from. A, B and so on number the origins entry by entry.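 TGI marks complete inhibition of growth.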

Tests used:
Test in all cases: NCI tumour cell line growth inhibition, 48 h
HOP-92 NSCLC = system: HOP-92 NSCLC
OVCAR-5 ovarian = system: OVCAR-5 ovarian
COLO 205 colon = system: COLO 205 colon
HCC-2998 colon = system: HCC-2998 colon
HCT-15 colon = system: HCT-15 colon
NCI-H460 lung = system: NCI-H460 lung
RPMI-8226 leukemia = system: RPMI-8226 leukemia
SR leukemia = system: SR leukemia
BT-549 breast = system: BT-549 breast
MDA-MB-435 = system: MDA-MB-435
OVCAR-4 ovarian = system: OVCAR-4 ovarian
TK-10 renal = system: TK-10 renal
P388/ADR leukemia = system: P388/ADR leukemia

CC(=O)OCC1OC(n2c(C)c(C)cc(C#N)c2=S)C(OC(C)=O)C(OC(C)=O)C1OC(C)=O (stereo not drawn)
GI50 (HOP-92 NSCLC): > 100 µM [sample A, 1 test] and 533 nM [sample B, 1 test]
GI50 (OVCAR-5 ovarian): > 100 µM [sample A, 1 test] and 32.4 nM [sample B, 1 test]

COc1ccc2[nH]c3ccc4cc[n+](CCN5CCC(C6CCN(CC[n+]7ccc8ccc9[nH]c%10ccc(OC)cc%10c9c8c7)CC6)CC5)cc4c3c2c1
GI50 (COLO 205 colon): > 50 µM and 657 nM
GI50 (HCC-2998 colon): 152 nM and 4.89 µM
TGI (HCT-15 colon): 1.92 µM and > 78.6 µM
GI50 (NCI-H460 lung): 18.3 nM [1 test] and 256 nM [mean of 2 tests]
TGI (NCI-H460 lung): 174 nM [1 test] and > 100 µM [mean of 2 tests]
TGI (RPMI-8226 leukemia): 3.01 µM and > 100 µM

ClCCCN1CCN(CCCl)CC1
TGI (HOP-92 NSCLC): 9.66 µM and 424 µM
TGI (SR leukemia): 39 µM and > 697 µM

CCc1nc(N)nc(N)c1C#CC(C)c1ccc(-c2ccncc2)cc1Cl (stereo not drawn)
GI50 (BT-549 breast): < 5 nM and 164 nM
GI50 (MDA-MB-435): < 5 nM and 55.5 nM
TGI (NCI-H460 lung): 1.02 µM and 10.2 µM
GI50 (OVCAR-4 ovarian): 117 nM and 2.68 µM
GI50 (SR leukemia): < 5 nM and 57.5 nM
GI50 (TK-10 renal): 605 nM and 58.6 nM

CCC/C=C/C=C/C(=O)OC1/C(=C/C(=O)OC)CC2CC(C(C)O)OC(=O)CC(O)CC3CC(OC(C)=O)C(C)(C)C(O)(CC4C/C(=C/C(=O)OC)CC(/C=C/C(C)(C)C1(O)O2)O4)O3 (stereo not drawn)
GI50 (COLO 205 colon): > 12.5 µM [1 test] and 4.16 µM [mean of 3 tests] and 977 nM [mean of 5 tests]
GI50 (P388/ADR leukemia): 1.42 nM [mean of 2 tests] and 2.9 µM [mean of 3 tests]
